Reference: PubChem BioAssay AID488969 (Vanderbilt High Throughput Screening Facility, 2010)
Whole data set: some 110,000 compounds, median “z-score” near -0.1, cut for the highest 2% near 2. The list shows a part of the results. Active and inactive are the calls of the source.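 How the source made its calls: active means z-score in the third read window above 3 or below -3; inactive means the rest.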

molecular target: Metabotropic glutamate receptor 8 (Rattus norvegicus) (UniProt P70579); assay: rat mGluR8 modulators via GIRK flux, primary screen, cell-based, thallium flux, HTS (AID 488969); conditions: HEK293 rat mGluR8, GIRK (G protein-gated inwardly rectifying potassium channel) thallium flux, FluoZin2; at 10 µM; stronger effect = higher value; submaximal glutamate (EC20) added with thallium
Sequence of UniProt P70579 (P70579 whole entry, looked up): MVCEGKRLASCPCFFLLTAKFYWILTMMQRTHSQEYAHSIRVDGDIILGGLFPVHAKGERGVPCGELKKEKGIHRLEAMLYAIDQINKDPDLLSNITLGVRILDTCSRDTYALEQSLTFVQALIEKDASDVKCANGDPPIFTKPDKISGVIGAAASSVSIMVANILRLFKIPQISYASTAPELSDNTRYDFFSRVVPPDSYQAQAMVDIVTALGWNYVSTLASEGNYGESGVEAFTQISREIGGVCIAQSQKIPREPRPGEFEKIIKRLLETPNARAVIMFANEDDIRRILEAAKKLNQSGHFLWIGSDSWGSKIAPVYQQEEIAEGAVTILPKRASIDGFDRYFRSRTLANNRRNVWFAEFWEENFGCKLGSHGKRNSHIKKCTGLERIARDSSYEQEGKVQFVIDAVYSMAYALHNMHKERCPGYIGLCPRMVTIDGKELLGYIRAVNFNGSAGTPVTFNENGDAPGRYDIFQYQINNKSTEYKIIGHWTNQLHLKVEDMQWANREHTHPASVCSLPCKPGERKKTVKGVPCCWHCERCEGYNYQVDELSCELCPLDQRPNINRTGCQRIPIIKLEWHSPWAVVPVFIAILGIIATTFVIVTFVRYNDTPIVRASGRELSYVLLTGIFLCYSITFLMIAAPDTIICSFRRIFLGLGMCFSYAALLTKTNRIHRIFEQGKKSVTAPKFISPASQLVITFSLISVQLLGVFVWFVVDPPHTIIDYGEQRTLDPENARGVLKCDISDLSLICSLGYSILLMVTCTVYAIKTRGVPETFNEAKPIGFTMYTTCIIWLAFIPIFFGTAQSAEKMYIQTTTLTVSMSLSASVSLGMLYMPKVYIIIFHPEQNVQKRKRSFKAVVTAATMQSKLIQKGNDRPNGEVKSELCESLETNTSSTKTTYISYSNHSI

| Structure (SMILES) | z-score |
| --- | --- |
| CCOc1ccc(NC(=O)CCSc2nc3c(c(CC)c2C#N)C(=O)CC(C)(C)C3)cc1 | -0.202 |
| CCCS(=O)(=O)N1CCC(C(=O)NCCCN2CCC(Cc3ccccc3)CC2)CC1 | 0.0734 |
| Cc1ccc(C(=O)O/N=C/C2=C(Cl)c3ccccc3CC2)cc1 | 0.993 |
| Cc1ccc2cc(/C=N/NC(=O)c3ccccc3O)c(Cl)nc2c1 | -0.549 |
| COc1cc(C(=O)Nc2nc(-c3ccc(Cl)cc3)c(C)s2)ccc1OCC(=O)Nc1ccc(F)cc1 | -0.246 |
| CC(C)COc1nc2ccccc2nc1C(C#N)C(=O)NC1CCCCC1 (stereo not given) | -0.0334 |
| CN(C)c1ccc(/C=[N+](\[O-])C2SC(=S)N(C)C2(C)C)cc1 (stereo not given) | 0.0932 |
| COc1ccccc1N1CCN(C(=O)CCCN2C(=O)c3cccc4cccc(c34)C2=O)CC1 | -0.334 |
| Cc1ccc(Nc2nc(C)c(CCC(C)C)c(=O)[nH]2)cc1 | 0.22 |
| COc1ccc(CNC(=S)Nc2cc(C)cc(C)c2)cc1 | 0.0468 |
| O=C1/C(=C\c2cccnc2)CCc2ccccc21 | -0.396 |
| CC(=O)C1=C(O)CCC1=NCCc1ccccc1 | -0.0979 |
| COc1ccc(NC(=O)c2cnc(C)cn2)c2ncccc12 | -0.327 |
| Cc1cccc(C)c1-n1c(C)cc(/C=N\NC(=O)CC(=O)NC2CCCCC2)c1C | -0.426 |
| COc1ccc(C)cc1NC(=O)C12CCC(C)(C(=O)O1)C2(C)C (stereo not given) | -0.0486 |
| Cc1nn(Cc2ccc(Cl)cc2Cl)c(C)c1NC(=O)c1ccc(COc2cc(Cl)ccc2Cl)o1 | -0.124 |
| COc1cc(/C=N/n2cnnc2)ccc1OC(=O)c1ccncc1 | -0.14 |
| CC(C)(C)c1csc(N(CCC#N)CCC#N)n1 | -0.355 |
| COC(=O)c1cc(Cl)c(NC(=O)c2ccc(C(C)(C)C)cc2)cc1OC | -0.633 |
| Cc1cccc(CSCc2nnc(N)s2)c1 | -0.191 |
| COc1ccc(Nc2oc(COc3ccc(OC)cc3)nc2C#N)cc1 | 0.0869 |
| CCN(CC)c1nc(-c2ccccc2)cc(C(F)(F)F)c1C#N | -0.0959 |
| COc1ccc(C(=O)COC(=O)CCCn2c(=O)oc3ccccc32)cc1 | 0.126 |
| Cc1cc(C)nc(N(C#N)Cc2ccccc2)n1 | 0.201 |

| Structure (SMILES) | z-score |
| --- | --- |
| Cc1nc2sc3c(c2c(=O)o1)CCC3 | 0.436 |
| O=C(Cn1cc2c(n1)CCCC2)Nc1ccccc1Br | -0.412 |
| CCCOc1ccc(C(=O)CCC(=O)OCC(=O)Nc2cc(C)on2)cc1 | -0.574 |
| Cc1ccc(-n2ncc3c(Nc4cccc(C(=O)O)c4)ncnc32)cc1 | -1.1 |
| Nc1nc(SCC(=O)Nc2ccc(Br)cc2F)n[nH]1 | 0.349 |
| COc1ccc(C(OC(=O)c2ccco2)C(=O)NCC2CCCO2)cc1 (stereo not given) | -0.972 |
| c1cnn(-c2cc(N3CCOCC3)ncn2)c1 | -0.268 |
| C/C(Cl)=C/CN1C(=O)C2C3C=CC(C3)C2C1=O (stereo not given) | -0.13 |
| COC(=O)c1ccccc1NC(=O)c1cc(-c2ccc(O)cc2)on1 | -0.322 |
| Clc1cccc(Cl)c1Cn1cnc2c(N3CCCCCC3)ncnc21 | -0.663 |
| O=C(CC1Nc2ccccc2NC1=O)NCCc1ccccc1 (stereo not given) | -0.0324 |
| CCC(=O)N1CCN(c2ccc(NC(=S)NC(=O)c3cccc([N+](=O)[O-])c3)cc2)CC1 | 0.125 |
| Cc1cc(C)nc(Sc2ncnc3sc4c(c23)CCC4)n1 | active: 5.12 |
| CCOC(=O)c1ccc(N=c2sc(C(=O)OC)cc(=O)n2Cc2ccc3c(c2)OCO3)cc1 | 0.428 |
| N#Cc1c(-c2ccccc2)nc2n(c1=O)CCS2 | 0.404 |
| Cc1ccc(C(C(=O)NCc2ccco2)N(C(=O)CNC(=O)c2cccs2)c2c(C)cc(C)cc2C)cc1 (stereo not given) | 0.407 |
| COc1ccc(S(=O)(=O)N(C)CC(=O)Nc2ccccc2SC)cc1Cl | -0.243 |
| N#Cc1c(-c2ccccc2)nc(SCC(=O)Nc2ccccc2)[nH]c1=O | -1.89 |
| COC(=O)c1ccc(CSC2=NCCS2)cc1 | -0.195 |
| CCCn1c(C)cc(C(=O)COC(=O)CN=C2NS(=O)(=O)c3ccccc32)c1C | -0.124 |
| CCC(=O)Nc1nc(C)nc(C)c1C(C)=O | 0.102 |
| CCCCc1[nH]c(=O)c(C#N)c2c1CCCC2 | -0.203 |
| C/C(=N\NS(=O)(=O)c1ccc(Cl)c([N+](=O)[O-])c1)c1cc2ccccc2o1 | -0.691 |
| Cc1oc(-c2cccc(Cl)c2)nc1CN1CCCC(C(=O)NCCCN2CCOCC2)C1 (stereo not given) | 0.0635 |

| Structure (SMILES) | z-score |
| --- | --- |
| COc1cnc(-c2ccccn2)nc1Sc1cccc(Cl)c1 | -0.464 |
| COC(=O)c1ccc(C(=O)OC)c(NC(=O)COc2ccccc2OC)c1 | -0.04 |
| CCN=c1scc(C)n1/N=C/c1ccc(O)c(O)c1O | -0.528 |
| N#C/C(=C(/O)COC(=O)CSc1ccc2ccccc2c1)c1nc2ccccc2[nH]1 | 0.0152 |
| CCC(C(=O)N1CCN(c2cccc(Cl)c2)CC1)c1ccccc1 (stereo not given) | 1.82 |
| CSc1nnc(C)c(/C=C/Nc2ccc(F)cc2)n1 | -0.895 |
| COc1ccc([N+](=O)[O-])cc1/C=N/NC(=O)CNC(=O)C(c1ccccc1)c1ccccc1 | -0.173 |
| Cc1ccc(C)c2c1sc(=NC(=O)CN1C(=O)CCC1=O)n2C | 0.351 |
| CCC(c1nnnn1CC1CCCO1)N(CCCO)Cc1cc2cccc(C)c2[nH]c1=O (stereo not given) | 0.0164 |
| O=C(O)CSC1=NC(=Nc2ccc(Cl)cc2)C2(CCCCC2)N1c1cccc(C(=O)O)c1 | 0.83 |
| Cn1c(C(=O)Nc2ccccc2)cc2sccc21 | 0.454 |
| O=C1CCCC/C1=C\Nc1ccc(Cl)cn1 | 0.295 |
| COc1ccc(C(=O)c2cnc3ccccc3c2-c2ccccc2)cc1 | -2.76 |
| COc1ccc(CCn2c(-c3cc([N+](=O)[O-])cc([N+](=O)[O-])c3)nc3nc4ccccc4nc32)cc1 | 0.0336 |
| CC(CCc1ccccc1)NC(=O)CSc1ccccc1 (stereo not given) | -0.00119 |
| C=CCN1C(=O)C(Cc2ccc(F)cc2)S/C1=N/N=C/c1cccs1 (stereo not given) | 0.0602 |
| O=C(CN=C1NC(=O)C(c2ccccc2)(c2ccccc2)N1)NCc1ccc(F)cc1 | -0.114 |
| COC(=O)C1=C(CSc2nccn2C)NC(=O)NC1c1cc(C)ccc1C (stereo not given) | -0.248 |
| CC(c1ccco1)N(C(=O)c1ccccc1NS(=O)(=O)c1ccc(Cl)c([N+](=O)[O-])c1)c1ccccn1 (stereo not given) | 0.843 |
| O=C(O)C1C2C=CC(O2)C1C(=O)NCCCn1ccnc1 (stereo not given) | 0.447 |
| COc1nc(Oc2ccc(/C=N/O)cc2)nc(N(C)C)n1 | 0.353 |
| CC(=O)Nc1c(O)nc(SCc2ccc(Cl)cc2)[nH]c1=O | -0.153 |
